# From the BET-seq Pho4 binding data (Le et al. 2018)
# Some of the results follow. The energies were worked out here from pooled read counts, against the library average; single values are noisy.
# Molecular target: T1, Pho4 (S. cerevisiae) (UniProt P07270)
# T1 sequence: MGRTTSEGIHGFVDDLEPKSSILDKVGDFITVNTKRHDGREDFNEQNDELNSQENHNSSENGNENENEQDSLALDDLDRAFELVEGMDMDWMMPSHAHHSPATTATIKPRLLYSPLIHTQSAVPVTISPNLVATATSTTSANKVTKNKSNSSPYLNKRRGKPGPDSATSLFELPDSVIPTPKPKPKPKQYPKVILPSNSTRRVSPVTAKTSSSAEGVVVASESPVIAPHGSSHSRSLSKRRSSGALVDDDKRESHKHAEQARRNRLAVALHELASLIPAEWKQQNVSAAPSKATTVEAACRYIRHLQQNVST
# Test: relative binding free energy (BET-seq); higher = weaker binding
# Conditions: reference: library average
row,Sequence,relative binding free energy
1,AAATTCACGTGTTTTT,0.3 kcal/mol
2,GGGTTCACGTGGTCGA,0.16 kcal/mol
3,TTGTGCACGTGCTTAT,0.02 kcal/mol
4,AGTATCACGTGGTCGA,0.15 kcal/mol
5,ATTTTCACGTGCTGGG,0.31 kcal/mol
6,GAGGGCACGTGTTCTG,-0.07 kcal/mol
7,GTATGCACGTGGTTGT,-0.04 kcal/mol
8,TTAGTCACGTGTAGCA,0.12 kcal/mol
9,TTGGGCACGTGTGTTT,0.09 kcal/mol
10,TTTTTCACGTGCCTGG,0.25 kcal/mol
11,GTTTACACGTGAGGGT,0.3 kcal/mol
12,AGAGTCACGTGATTTA,0.11 kcal/mol
13,GATAGCACGTGTTGAT,-0.08 kcal/mol
14,TGTTCCACGTGGGTGA,-0.02 kcal/mol
15,CGTGACACGTGGGATT,-0.07 kcal/mol
16,CTGTTCACGTGTCTTT,0.22 kcal/mol
17,CGAGGCACGTGGGACG,-0.11 kcal/mol
18,CCTGGCACGTGTTGTG,-0.02 kcal/mol
19,AGGCTCACGTGGTTAG,0.3 kcal/mol
20,AGTGTCACGTGGGAAC,0.05 kcal/mol
21,GTCTGCACGTGAGAGG,0.29 kcal/mol
22,AATAGCACGTGCGTTG,-0.05 kcal/mol
23,GGCTTCACGTGTTTGT,0.3 kcal/mol
24,GCTTTCACGTGGTCGT,0.24 kcal/mol
25,GAAAACACGTGGAGTG,0.03 kcal/mol
26,GAATTCACGTGTCGTG,0.24 kcal/mol

row,Sequence,relative binding free energy
1,TATGGCACGTGCACGG,-0.24 kcal/mol
2,TGGCGCACGTGGGTGC,-0.27 kcal/mol
3,GGGGGCACGTGAGTTA,0.08 kcal/mol
4,GTTTTCACGTGGCGGG,0.21 kcal/mol
5,TAAGTCACGTGTGTTA,0.11 kcal/mol
6,TGCGTCACGTGGGATA,-0.07 kcal/mol
7,TTGAACACGTGGTAAT,-0.15 kcal/mol
8,ACTGGCACGTGTTATG,-0.06 kcal/mol
9,ATGAGCACGTGGGCTT,-0.17 kcal/mol
10,CAGGTCACGTGAGGTG,0.27 kcal/mol
11,CGTATCACGTGGTGAT,0.1 kcal/mol
12,ATTTACACGTGCTTTT,-0.03 kcal/mol
13,CTCAGCACGTGGGGGT,-0.1 kcal/mol
14,TTTGGCACGTGGAGTC,-0.01 kcal/mol
15,TTGTCCACGTGTGCAT,0.04 kcal/mol
16,GTTTTCACGTGGGAAG,0.28 kcal/mol
17,GCTGTCACGTGTAGTG,-0.04 kcal/mol
18,AGGCTCACGTGATGTA,0.34 kcal/mol
19,TTCAGCACGTGTGCTG,-0.05 kcal/mol
20,AGCGTCACGTGGTAAT,0.05 kcal/mol
21,ATCGTCACGTGTAAGG,0.1 kcal/mol
22,TAATTCACGTGATTGT,0.28 kcal/mol
23,GGAAACACGTGGCTTG,-0.02 kcal/mol
24,TGGAACACGTGGTGCT,-0.04 kcal/mol
25,AAAGCCACGTGGGGTG,-0.27 kcal/mol
26,TTACTCACGTGAGTAT,0.38 kcal/mol

row,Sequence,relative binding free energy
1,TTGTGCACGTGTCTGC,-0.01 kcal/mol
2,GAGCGCACGTGTGTGA,-0.04 kcal/mol
3,ATTTACACGTGTTATC,0.06 kcal/mol
4,TGTAGCACGTGTTGGC,0.07 kcal/mol
5,CGTGTCACGTGACTGG,0.05 kcal/mol
6,GAGGACACGTGCGGGA,0.08 kcal/mol
7,AGTTCCACGTGGTGAG,0.11 kcal/mol
8,CTGTTCACGTGTAATT,0.13 kcal/mol
9,ATTGCCACGTGTTTGT,-0.17 kcal/mol
10,GTATGCACGTGAGGAG,0.25 kcal/mol
11,TGTTTCACGTGGTAGA,0.19 kcal/mol
12,GTGTTCACGTGACTTA,0.42 kcal/mol
13,GGAGGCACGTGGTGCG,-0.12 kcal/mol
14,TATGACACGTGGGATA,-0.12 kcal/mol
15,TGAGGCACGTGCGTTA,-0.25 kcal/mol
16,GGCGTCACGTGTTTTA,0.14 kcal/mol
17,CGGTGCACGTGTTTAG,-0.06 kcal/mol
18,TGAGGCACGTGGGATA,-0.21 kcal/mol
19,AACTTCACGTGTGTGA,0.24 kcal/mol
20,TGTGTCACGTGTAGCG,0.07 kcal/mol
21,GTGGTCACGTGGGGCT,0.13 kcal/mol
22,TTGTTCACGTGCAATG,0.22 kcal/mol
23,TGCGTCACGTGGCTTG,-0.06 kcal/mol
24,GTCGGCACGTGGTAGA,-0.2 kcal/mol
25,GGTAGCACGTGGCGGC,-0.2 kcal/mol
26,GAACGCACGTGATTGT,0.26 kcal/mol

row,Sequence,relative binding free energy
1,TATATCACGTGTGATG,0.16 kcal/mol
2,GGGCACACGTGAGAGG,0.06 kcal/mol
3,GATGACACGTGTATGG,0.19 kcal/mol
4,AGAATCACGTGTGGGT,0.12 kcal/mol
5,ATAGGCACGTGTTGAG,0.01 kcal/mol
6,GGTGGCACGTGTCGGT,0.02 kcal/mol
7,CGTCGCACGTGAGGTG,0.09 kcal/mol
8,CAGAGCACGTGGGCGT,-0.27 kcal/mol
9,TGCTTCACGTGTTGTC,0.26 kcal/mol
10,AAGTACACGTGGGGGG,-0.14 kcal/mol
11,AGTGTCACGTGAGTAC,0.19 kcal/mol
12,TATGTCACGTGTTTAA,0 kcal/mol
13,TGCTGCACGTGGAAAT,0.2 kcal/mol
14,AAGGGCACGTGGAATT,0.04 kcal/mol
15,ATGTGCACGTGCTGGT,0 kcal/mol
16,TTTGACACGTGAGGCT,0.18 kcal/mol
17,TATCACACGTGTGTTT,0.1 kcal/mol
18,TTAGACACGTGGTCGC,0.05 kcal/mol
19,TGTGGCACGTGCCGCT,-0.17 kcal/mol
20,GTTGCCACGTGAGTTA,0.28 kcal/mol
21,TTTGGCACGTGAATTG,0.19 kcal/mol
22,CTTTTCACGTGTAAGT,0.34 kcal/mol
23,ATTAGCACGTGTGCTA,0.04 kcal/mol
24,GGTCTCACGTGAGGTG,0.26 kcal/mol
25,AGGTTCACGTGAGTTT,0.36 kcal/mol
26,TCGCGCACGTGAAGGT,0.13 kcal/mol

row,Sequence,relative binding free energy
1,TTATGCACGTGTTCTC,0 kcal/mol
2,GGCATCACGTGATAGG,0.23 kcal/mol
3,GTAATCACGTGGGCTT,-0.08 kcal/mol
4,ATTTTCACGTGTAGTG,0.22 kcal/mol
5,GTTTGCACGTGCAATG,0.07 kcal/mol
6,TTTCTCACGTGACGGT,0.27 kcal/mol
7,AATAGCACGTGGTATA,-0.29 kcal/mol
8,GTTGACACGTGGATGG,0.14 kcal/mol
9,TTATGCACGTGGAGGC,-0.02 kcal/mol
10,ACGTACACGTGGGGGG,-0.14 kcal/mol
11,GGTCGCACGTGAATTG,0.18 kcal/mol
12,TTCAGCACGTGTAGTG,-0.16 kcal/mol
13,GCTGTCACGTGGGATC,0.15 kcal/mol
14,AAGTCCACGTGTTATT,0.21 kcal/mol
15,AGGTCCACGTGAGGGT,0.24 kcal/mol
16,TAAAACACGTGAGGGG,0.22 kcal/mol
17,AGTGTCACGTGTGGGT,0.07 kcal/mol
18,AGGGTCACGTGGCTGT,0.12 kcal/mol
19,GTTCCCACGTGGGAGG,-0.03 kcal/mol
20,CGCGTCACGTGTGATG,0.15 kcal/mol
21,TATGACACGTGACGTG,0.24 kcal/mol
22,GGCTGCACGTGTCGGT,0.01 kcal/mol
23,GTGCTCACGTGGTATA,0.1 kcal/mol
24,TGTCGCACGTGTTTTC,0 kcal/mol
25,ATTGTCACGTGACGGG,0.13 kcal/mol
26,TGTTCCACGTGTTGCT,0.16 kcal/mol

row,Sequence,relative binding free energy
1,TCAGTCACGTGTCGGT,0.04 kcal/mol
2,AGTGGCACGTGTTACT,-0.13 kcal/mol
3,TAAGGCACGTGTCTTG,-0.01 kcal/mol
4,ATGTGCACGTGTAGGG,-0.05 kcal/mol
5,TATGGCACGTGGCTCG,-0.15 kcal/mol
6,GTAAGCACGTGATGGT,0.15 kcal/mol
7,GATAGCACGTGGTGTG,-0.1 kcal/mol
8,GGAGTCACGTGTGTAT,0.23 kcal/mol
9,GCATTCACGTGGTTTT,0.24 kcal/mol
10,GGGTTCACGTGGCGGA,0.36 kcal/mol
11,TGGGACACGTGTGTCG,0.08 kcal/mol
12,TATCCCACGTGGTGGT,-0.18 kcal/mol
13,GGCAACACGTGGGGGG,-0.01 kcal/mol
14,AGGGGCACGTGTTATG,-0.19 kcal/mol
15,AGTTGCACGTGTCGGG,0.01 kcal/mol
16,GTGTTCACGTGCTTTG,0.2 kcal/mol
17,TAGTTCACGTGTTCGA,0.27 kcal/mol
18,GAATTCACGTGGTGAT,0.15 kcal/mol
19,TTTGTCACGTGTCTGA,0.09 kcal/mol
20,GTCGTCACGTGGTTCG,0.04 kcal/mol
21,CGGAACACGTGGAGGT,0.06 kcal/mol
22,GGTTGCACGTGAGAAT,0.32 kcal/mol
23,GGGTGCACGTGATTTC,0.12 kcal/mol
24,ATTTCCACGTGGTGTA,0.02 kcal/mol
25,ATTTACACGTGTGAGA,0.13 kcal/mol
26,TGCAGCACGTGGGTAT,-0.27 kcal/mol

row,Sequence,relative binding free energy
1,GTACGCACGTGTCGGT,0.02 kcal/mol
2,TTGTTCACGTGCCGTG,0.32 kcal/mol
3,CGTAACACGTGTGGTT,-0.04 kcal/mol
4,GTTCTCACGTGGTGTT,0.14 kcal/mol
5,TATATCACGTGTTTGT,0.15 kcal/mol
6,TTTATCACGTGATTAG,0.2 kcal/mol
7,CGGCTCACGTGATGTT,0.3 kcal/mol
8,TTCGACACGTGGTTTT,0.04 kcal/mol
9,ATAGGCACGTGAGTGA,0.16 kcal/mol
10,TATTTCACGTGGTGGG,0.27 kcal/mol
11,CGCTACACGTGTGGTG,0.08 kcal/mol
12,GGTGGCACGTGGCCGT,-0.3 kcal/mol
13,AGGGGCACGTGAGTAG,0.14 kcal/mol
14,GTCTGCACGTGGATAT,0.14 kcal/mol
15,GTTTTCACGTGAGAGC,0.43 kcal/mol
16,AAGGGCACGTGCGTTG,-0.17 kcal/mol
17,AGGTGCACGTGTGAAG,-0.07 kcal/mol
18,GTTTTCACGTGATTAT,0.44 kcal/mol
19,ATGTTCACGTGATGAT,0.32 kcal/mol
20,TAGGACACGTGGGACG,-0.11 kcal/mol
21,GTAGACACGTGGGGTG,-0.08 kcal/mol
22,GTTTGCACGTGGGAAG,0.07 kcal/mol
23,GTTATCACGTGGGGAG,0.03 kcal/mol
24,GTAAGCACGTGTGTTC,0.12 kcal/mol
25,ATTATCACGTGAAGAG,0.38 kcal/mol
26,GTGGTCACGTGGATTG,0.24 kcal/mol

row,Sequence,relative binding free energy
1,ATGGTCACGTGGACGG,0.09 kcal/mol
2,AACGTCACGTGGTGGA,0.03 kcal/mol
3,TTAGCCACGTGAGATG,0.23 kcal/mol
4,GGTAGCACGTGATGTG,0.31 kcal/mol
5,CAGCTCACGTGTTGTG,0.24 kcal/mol
6,GTTTGCACGTGTTTGG,0.16 kcal/mol
7,TATGACACGTGTTATA,-0.06 kcal/mol
8,TGCCGCACGTGGGCGG,-0.24 kcal/mol
9,TTTGCCACGTGAATGA,0.25 kcal/mol
10,AGGGGCACGTGGGTTC,-0.26 kcal/mol
11,TTATGCACGTGTAGGC,-0.03 kcal/mol
12,ATGTCCACGTGGGAAT,0.05 kcal/mol
13,TTAAGCACGTGAGTCT,0.09 kcal/mol
14,CGAAGCACGTGTGGGA,-0.07 kcal/mol
15,ATATGCACGTGTCGTA,0.03 kcal/mol
16,TTTGACACGTGGCTAG,-0.02 kcal/mol
17,TGCGTCACGTGTTAGA,0.03 kcal/mol
18,TTAGTCACGTGCGCGT,-0.02 kcal/mol
19,TATTTCACGTGATGGG,0.38 kcal/mol
20,CGTTACACGTGGTATA,-0.02 kcal/mol
21,GGGGACACGTGTTGAA,0.03 kcal/mol
22,TCGGTCACGTGATTTT,0.33 kcal/mol
23,GTATTCACGTGTGCTG,0.25 kcal/mol
24,AGACGCACGTGAGGGT,0.01 kcal/mol
25,TTGTGCACGTGATAGA,0 kcal/mol
26,CGAGGCACGTGATGGC,0.05 kcal/mol

row,Sequence,relative binding free energy
1,TTAATCACGTGAGTGT,0.25 kcal/mol
2,ACGAGCACGTGTGGGG,-0.1 kcal/mol
3,TAGCGCACGTGAGATT,0.54 kcal/mol
4,CGGGTCACGTGGCCTG,-0.01 kcal/mol
5,AGTGACACGTGAGGGC,0.11 kcal/mol
6,AGACGCACGTGTGGGC,-0.05 kcal/mol
7,TAAATCACGTGCGTTG,0.13 kcal/mol
8,GGTAGCACGTGTTGGT,-0.13 kcal/mol
9,ATTAGCACGTGACGTT,-0.06 kcal/mol
10,GAATTCACGTGGGTGA,0.27 kcal/mol
11,GTTTTCACGTGTGGTC,0.41 kcal/mol
12,GTTACCACGTGTTAGG,0.09 kcal/mol
13,TATGGCACGTGTTAGA,-0.12 kcal/mol
14,GGGACCACGTGTGAGA,0.18 kcal/mol
15,ACTGGCACGTGTTGGG,-0.13 kcal/mol
16,TCGTGCACGTGGGTTC,-0.06 kcal/mol
17,TGTGTCACGTGTAGGT,0.03 kcal/mol
18,AGTTGCACGTGAGAGC,0.22 kcal/mol
19,GTTAGCACGTGGGGAA,-0.03 kcal/mol
20,TTGTTCACGTGGCTCA,0.25 kcal/mol
21,GGTGTCACGTGGGGTT,0.03 kcal/mol
22,GGTTACACGTGTTTAT,0.17 kcal/mol
